The list shows a part of the results.
What follows are sequences tested against T1, OsWOX13 (Oryza sativa, UniProt Q5QMM3 1-267) (assay: protein-binding microarray (RPBM); PBS, 2% BSA, 51.3 ng/ul salmon testes DNA, 50 uM zinc acetate, 200 nM TF, 25 C, 1 h; high values mean tight binding). Settings: protein: recombinant; tags: N-terminal polyhistidine and DsRed monomer fusion (pET32a); label: CyDye5-dUTP incorporated in the synthesized complementary strand; 3' TTTTT single-stranded linker to array surface; dsDNA, one strand shown.
T1 sequence: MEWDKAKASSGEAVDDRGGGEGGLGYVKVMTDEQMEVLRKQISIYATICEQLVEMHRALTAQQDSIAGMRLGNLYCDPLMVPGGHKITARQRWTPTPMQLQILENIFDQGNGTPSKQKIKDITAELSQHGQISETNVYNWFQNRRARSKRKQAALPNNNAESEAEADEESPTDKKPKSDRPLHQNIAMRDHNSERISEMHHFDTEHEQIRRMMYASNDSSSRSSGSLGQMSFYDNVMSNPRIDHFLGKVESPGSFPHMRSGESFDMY
Procedure, shortened: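 Transcription factors, each fused N-terminally to a polyhistidine tag and DsRed, were expressed in E. coli BL21-CodonPlus and purified on Ni–NTA. A custom Agilent array was made double-stranded by primer extension with Cy5-dUTP and blocked with 2% BSA. It was incubated with 200 nM protein in PBS, 2% BSA, salmon testes DNA and 50 µM zinc acetate at 25 °C for 1 h, then washed. The binding signal is per-feature fluorescence intensity (arbitrary units) read on an Axon 4000B scanner.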
“ATTTATTACTATAATTAAATAAATAATCTATTACTCTGTACGGAGTCACCTAGTGCAG” was tested, and the binding signal was 8800 fluorescence intensity (a.u.).
For “TTTTCCAGTTGTTTAAATTAAATTAAACCCAAATCGATCCCGGAGTCACCTAGTGCAG”, the binding signal was 6140 fluorescence intensity (a.u.).
For “TAGTTAATTACCACTCACACTGAAAAGAAGAAGAAAGCATCGGAGTCACCTAGTGCAG”, the binding signal was 25300 fluorescence intensity (a.u.).
For “ATGTTGATTGGAGTCTGATAACTTGTCACTGGATGACATGCGGAGTCACCTAGTGCAG”, the binding signal was 61700 fluorescence intensity (a.u.).
With “TTTAATGTAATTTTAGTATATAACAGATAGATTTAGAAGACGGAGTCACCTAGTGCAG” the binding signal was 15800 fluorescence intensity (a.u.).
“TCCGTCTCTCACCTTCAATCAAACTTCCAAAATCTGAACCCGGAGTCACCTAGTGCAG” was tested, and the binding signal was 4490 fluorescence intensity (a.u.).
In the case of “ATAAATTGCAACAAAGTGGATAAACCAGTGGGTGATGAGACGGAGTCACCTAGTGCAG”, the binding signal is reported as 15000 fluorescence intensity (a.u.).
With “AGATGACATATCATGATAAGTTCTAAGATTTGGATATGCACGGAGTCACCTAGTGCAG” the binding signal was 3280 fluorescence intensity (a.u.).
In the case of “TCACCAGCCAATCACGAACGGAAGCCGGTGCCGTCCCCTTCGGAGTCACCTAGTGCAG”, the binding signal is reported as 14600 fluorescence intensity (a.u.).
“CTAGATTGATCGAAATCCGTCAAGTTCATGAACCGTTAAGCGGAGTCACCTAGTGCAG” was tested, and the binding signal was 54400 fluorescence intensity (a.u.).
“TCCTTTAATTATATAATAGATATTTGGAGGAACTAATCTCCGGAGTCACCTAGTGCAG” was tested, and the binding signal was 24300 fluorescence intensity (a.u.).
With “TATCGATTAATTGATCATATATACTGTACTCCTGTATATCCGGAGTCACCTAGTGCAG” the binding signal was 33500 fluorescence intensity (a.u.).
“ATAAATTTATAGAGTTCAAGAAAACTTAGATCCAGTGTTGCGGAGTCACCTAGTGCAG” was tested, and the binding signal was 10600 fluorescence intensity (a.u.).
“ACAAAACCAACTAATTAGGCAGGCAGCCATTTACCTCCATCGGAGTCACCTAGTGCAG” was tested, and the binding signal was 5480 fluorescence intensity (a.u.).
With “TGTTAATTTGCAGAGCATGGTTGACTGTGAGTTCTTGATGCGGAGTCACCTAGTGCAG” the binding signal was 41700 fluorescence intensity (a.u.).
“CACCATGATTGATTGCTCCATGCACACACATTGAGACACGCGGAGTCACCTAGTGCAG” was tested, and the binding signal was 59700 fluorescence intensity (a.u.).
“CTATAATTACCTGCATGGCCGTCTTTCTTCGCTCAAAACACGGAGTCACCTAGTGCAG” was tested, and the binding signal was 9510 fluorescence intensity (a.u.).
With “AAGTAATTATGGGCCTTGCACACGAGGGGATAGTCCAAAGCGGAGTCACCTAGTGCAG” the binding signal was 5970 fluorescence intensity (a.u.).
“GCGATTCAATCAGGAACAAGACACGAGAGAGGCGAAATGGCGGAGTCACCTAGTGCAG” was tested, and the binding signal was 8290 fluorescence intensity (a.u.).
With “CTGGTAATTTCTAATCCGGTAATCCCTAATATTGGATTATCGGAGTCACCTAGTGCAG” the binding signal was 11600 fluorescence intensity (a.u.).
With “TCACCATTTTAATTTATTGTCCATGCGCCATGTAAGAGGACGGAGTCACCTAGTGCAG” the binding signal was 4250 fluorescence intensity (a.u.).
“CAGGATTAAGTTGATTGATAGACAATAAATAATTATTTCTCGGAGTCACCTAGTGCAG” was tested, and the binding signal was 27500 fluorescence intensity (a.u.).
In the case of “CCTATGAAGATAATGCTAATTAACCGAATACATAGGAATTCGGAGTCACCTAGTGCAG”, the binding signal is reported as 4510 fluorescence intensity (a.u.).
For “ATTTGATAAATGGGATGCCACGTGTACACCACGTCAACAGCGGAGTCACCTAGTGCAG”, the binding signal was 4270 fluorescence intensity (a.u.).
For “ATCATAGCAGTAATTACCTTTGTAAATTCTAAAAGCAGTCCGGAGTCACCTAGTGCAG”, the binding signal was 7500 fluorescence intensity (a.u.).
“GCAAAACAGTCCATTAATCAATGACCAACAAAAGAGCCCCCGGAGTCACCTAGTGCAG” was tested, and the binding signal was 7000 fluorescence intensity (a.u.).
In the case of “AATAATAATTAACCCCACCGAGTAAATTTCCTAGCTTCGCCGGAGTCACCTAGTGCAG”, the binding signal is reported as 11000 fluorescence intensity (a.u.).
In the case of “TTTATAATTAGTATCAAAACATCCGATATGATAGTTACTTCGGAGTCACCTAGTGCAG”, the binding signal is reported as 17100 fluorescence intensity (a.u.).
With “TAATTAATGAATCCAAATTAATCGCTCTGACCAGTTGCAACGGAGTCACCTAGTGCAG” the binding signal was 9340 fluorescence intensity (a.u.).
“TAATTTAATTGACATCGAATTAGACAAGAACTACTTGGTTCGGAGTCACCTAGTGCAG” was tested, and the binding signal was 37200 fluorescence intensity (a.u.).
“ACATTTACTTAATTGTAAATATATATTTTGGTAATATATGCGGAGTCACCTAGTGCAG” was tested, and the binding signal was 9650 fluorescence intensity (a.u.).
In the case of “CATTGACTAATATGAGTCCTACATATCATTGAGATACCGACGGAGTCACCTAGTGCAG”, the binding signal is reported as 3340 fluorescence intensity (a.u.).
In the case of “CCATAAATTGTGTGCTGCGATAGGTAGCTGGATCTCGCCGCGGAGTCACCTAGTGCAG”, the binding signal is reported as 7560 fluorescence intensity (a.u.).
“ATTAAATTTTATGTGCGATTTACAAGCTGAATAAATTTTGCGGAGTCACCTAGTGCAG” was tested, and the binding signal was 7990 fluorescence intensity (a.u.).
“CAACAAATTAGTTTCATTAAATCAATAATCAAAATTCAATCGGAGTCACCTAGTGCAG” was tested, and the binding signal was 11100 fluorescence intensity (a.u.).
In the case of “ATAATATAATTAAACGCTTGTCTGAATATATACAAGCTGGCGGAGTCACCTAGTGCAG”, the binding signal is reported as 18900 fluorescence intensity (a.u.).
“CACTAAACGTGGAATTAACTAGTAATTAGGCATGCAACGACGGAGTCACCTAGTGCAG” was tested, and the binding signal was 18000 fluorescence intensity (a.u.).
In the case of “TACTCTATCAATCATCGTCAGTTGAGCCTCAGCTCGCGCACGGAGTCACCTAGTGCAG”, the binding signal is reported as 36300 fluorescence intensity (a.u.).
“AACAGCCAATCAGAGCATAAATTTCAAACTTTTCTTGAAACGGAGTCACCTAGTGCAG” was tested, and the binding signal was 14700 fluorescence intensity (a.u.).
With “AGTTTGATTGATTATGTTGTATCTTGCATGTAATTATAATCGGAGTCACCTAGTGCAG” the binding signal was 49700 fluorescence intensity (a.u.).
For “AATAGATTATGCAGAATGGGAACACGTGAATACGTGATGCCGGAGTCACCTAGTGCAG”, the binding signal was 7420 fluorescence intensity (a.u.).
With “GCTGATGATTGAAGCACACATTTCTCCATGTTGATGCTTTCGGAGTCACCTAGTGCAG” the binding signal was 35800 fluorescence intensity (a.u.).

Source: article PMC7819943, “Rice protein-binding microarrays: a tool to detect cis-acting elements near promoter regions in rice”
